Data: PubChem BioAssay AID488969 (Vanderbilt High Throughput Screening Facility, 2010)
In all, about 110,000 compounds were measured (“z-score”: median about -0.1, highest 2% from about 2 on). Some of the results follow. Active and inactive are the calls of the source.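 Rule for the calls: active = z-score in the third read window above 3 or below -3; inactive = the rest.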

The compounds below were run against Metabotropic glutamate receptor 8 (Rattus norvegicus) (UniProt P70579) (assay: mGluR8 Gi/Go-coupled signaling modulation – cell-based, rat, thallium flux, HTS, primary screen (AID 488969)). Conditions: HEK293 rat mGluR8, GIRK (G protein-gated inwardly rectifying potassium channel) thallium flux, FluoZin2; at 10 µM; stronger effect = higher value; submaximal glutamate (EC20) added with thallium.
Chain of UniProt P70579 (P70579 whole entry, looked up): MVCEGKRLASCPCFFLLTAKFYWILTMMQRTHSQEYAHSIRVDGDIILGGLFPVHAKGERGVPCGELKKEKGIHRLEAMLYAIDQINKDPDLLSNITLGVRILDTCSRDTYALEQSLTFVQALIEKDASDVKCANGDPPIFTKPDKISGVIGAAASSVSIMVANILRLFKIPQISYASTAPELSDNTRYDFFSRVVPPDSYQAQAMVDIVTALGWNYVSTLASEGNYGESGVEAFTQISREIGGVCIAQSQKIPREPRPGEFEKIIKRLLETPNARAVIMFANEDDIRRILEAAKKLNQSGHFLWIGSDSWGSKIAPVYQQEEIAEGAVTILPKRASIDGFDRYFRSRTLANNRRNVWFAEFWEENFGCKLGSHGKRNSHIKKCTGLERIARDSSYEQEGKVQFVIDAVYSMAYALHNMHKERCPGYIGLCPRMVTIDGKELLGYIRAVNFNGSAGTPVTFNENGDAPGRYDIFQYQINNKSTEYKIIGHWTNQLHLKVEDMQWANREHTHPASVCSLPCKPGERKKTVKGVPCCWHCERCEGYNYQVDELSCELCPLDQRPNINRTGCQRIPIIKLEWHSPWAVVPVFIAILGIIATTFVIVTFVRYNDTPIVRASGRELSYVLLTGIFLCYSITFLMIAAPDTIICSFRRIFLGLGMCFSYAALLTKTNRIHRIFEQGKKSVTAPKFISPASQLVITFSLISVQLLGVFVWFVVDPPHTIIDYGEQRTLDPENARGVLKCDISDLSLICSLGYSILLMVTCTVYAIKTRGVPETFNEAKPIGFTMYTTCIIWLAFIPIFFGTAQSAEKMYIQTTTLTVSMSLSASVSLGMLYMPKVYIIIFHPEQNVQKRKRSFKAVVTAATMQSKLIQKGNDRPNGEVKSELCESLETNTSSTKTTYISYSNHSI

In order of falling z-score:
1. CC(C)C[C@H](NC(=O)NCCc1ccc(Cl)cc1)C(=O)O  2.58
2. COc1ccc2c(-c3ccccc3)cc(SCC(=O)N(C)C3CCS(=O)(=O)C3)nc2c1 (centres undefined)  2.36
3. Fc1cccc2sc(Nc3nc4ccccc4s3)nc12  2.21
4. CCOC(=O)c1c(C)nc(C)c(C(=O)OCC)c1-c1ccc(OC)cc1  1.15
5. COCCCNS(=O)(=O)c1ccc(S(=O)(=O)N2CCCC2)cc1  0.875
6. COCc1nnc(NC(=O)c2ccco2)s1  0.76
7. COCC(=O)N(Cc1nc2ccccc2c(=O)[nH]1)Cc1cccs1  0.604
8. COc1ccc(OC)c(C(c2nnnn2Cc2ccccc2)N2CCC(C(N)=O)CC2)c1 (centres undefined)  0.581
9. Cc1cc(C(=O)CSc2nnc(-c3cccc(F)c3)n2N)c(C)n1Cc1ccc2c(c1)OCO2  0.452
10. O=C(Cn1c(C(=O)N2CCN(C3CCCCC3)CC2)cc2sccc21)c1ccccc1  0.45
11. COc1ccc(CN2C(=O)c3ccccc3C(/C=N/OCc3ccc(Cl)cc3)C2=O)cc1 (centres undefined)  0.378
12. C=CCNC(=O)c1cc(-c2ccccc2O)on1  0.366
13. Cc1ccccc1-n1c(=O)cc(N2CCC3(CC2)OCCO3)[nH]c1=O  0.33
14. O=C(COc1ccc2ccccc2c1)NNC(=O)c1cccs1  0.323
15. CCOCCCNS(=O)(=O)c1ccccc1  0.319
16. CCOC(=O)c1sc(NC(=O)COC(=O)C(CCSC)NC(C)=O)nc1C (centres undefined)  0.313
17. Cc1nc(CS(=O)c2ccc(Cl)cc2)cc(NCc2ccc(Cl)cc2Cl)n1 (centres undefined)  0.31
18. Clc1cccc(NCc2nnc(SCc3ccc(Cl)cc3Cl)o2)c1  0.273
19. CCC(C)(C)n1nnnc1C(c1ccc(OC)c(OC)c1)N1CCN(c2ccc(F)cc2)CC1 (centres undefined)  0.257
20. Nc1ccccc1C(=O)NNc1ncc(C(F)(F)F)cc1Cl  0.251
21. O=C(CSCc1ccccc1)Nc1ccc2c(c1)OCO2  0.244
22. c1ccc(C2CC(c3ccccc3)n3ncnc3N2)cc1 (centres undefined)  0.175
23. Cc1cccc(Cn2c(NCC(C)O)nc3c2c(=O)n(C)c(=O)n3C)c1 (centres undefined)  0.143
24. Cc1ccc(NC(=O)Cc2c[nH]c3ccccc23)cc1S(=O)(=O)N1CCCCCC1  0.141
25. CCCC(=O)Nc1ccc(OCC(=O)OC)cc1  0.119
26. O=C(NCc1ccco1)c1cc(-c2ccc(F)cc2)on1  0.0819
27. COCC(=O)N(Cc1cc2ccccc2[nH]c1=O)c1ccccc1OC  0.039
28. CCOC(=O)N1CCN(C(=O)C2CCN(Cc3ccc(OC)cc3OC)CC2)CC1  0.0344
29. O=C(NCc1cccc(Cl)c1)NCc1cccc(Cl)c1  0.0207
30. Cc1cc(N2CCOCC2)c2c(N)cc(C)c(C)c2n1  0.00567
31. COC(=O)c1sccc1NC(=O)C12CC3CC(CC(C3)C1)C2  -0.00272
32. COc1cc2c(c(O)c1OC)C(=O)C(OC)CCC2 (centres undefined)  -0.015
33. Cc1ccc(Cn2nnc3c(=O)n(CC(=O)NCC4CCCO4)cnc32)cc1 (centres undefined)  -0.0187
34. CC(C)OC(=O)C1C(=O)CC(C)(O)C(C(=O)OC(C)C)C1c1cccnc1 (centres undefined)  -0.0253
35. COC(=O)c1cn(CCOc2ccccc2F)c2ccccc12  -0.0507
36. COc1ccc(C)cc1NC(=S)N1CCN(c2ccccn2)CC1  -0.0513
37. COC(=O)N(NC(=O)C(O)(c1ccccc1)c1ccccc1)c1ccccc1  -0.0551
38. Cc1cc(C)nc(NC2=NCC(=O)N2c2cccc(Cl)c2)n1  -0.0559
39. N#Cc1c(NC(=O)C2CC(c3ccccc3O)=NO2)sc2c1CCC2 (centres undefined)  -0.0566
40. CC1Cc2ccccc2N1CC(=O)NCc1ccc2c(c1)OCO2 (centres undefined)  -0.0574
41. Cc1ccc(-n2c(CNc3ccc(F)cc3)nnc2SCC(=O)N2CCOCC2)cc1  -0.0678
42. CSc1nc(C)cc(OCC#N)n1  -0.071
43. COc1ccc(C(=O)NC(C)(C)C)cc1S(=O)(=O)N1CCCC1  -0.0729
44. CCOC1(OCC)C(c2ccc(Cl)cc2)C(C#N)(C#N)C1(OCC)OCC (centres undefined)  -0.0787
45. Cc1ccc(-c2c(=O)n(OCc3ccccn3)c3ccccc3[n+]2[O-])cc1  -0.0797
46. CC(CN1CCOCC1)(NS(=O)(=O)c1ccccc1)c1ccccc1 (centres undefined)  -0.0802
47. CC(=O)Nc1nc2ccc(NC(=O)c3ccco3)cc2s1  -0.0812
48. Cc1ccc2cc(CN(Cc3cccs3)Cc3nnnn3CC3CCCO3)c(=O)[nH]c2c1 (centres undefined)  -0.0837
49. Cc1nn(Cc2ccc(Cl)cc2Cl)c(Cl)c1/C=N/NC(=O)CNc1cccc(C(F)(F)F)c1  -0.087
50. COc1cc(/C=C2/SC(=O)N(Cc3ccccc3)C2=O)ccc1OCc1ccncc1  -0.0883
51. CCOC(=O)N1CCN(c2cc(=O)n(-c3ccccc3Cl)c(=O)[nH]2)CC1  -0.091
52. Cn1c(-c2ccccc2)cnc1SCC(=O)N1CCCCC1  -0.0912
53. CCOC(=O)C(CCCCOc1ccc([N+](=O)[O-])cc1)C(=O)OCC  -0.0991
54. CCc1nnc(NC(=O)c2ccc(S(=O)(=O)N(CCOC)CCOC)cc2)s1  -0.106
55. COc1ccccc1Nc1nc2c(C)cccc2cc1C#N  -0.118
56. Cn1ncc(N=Cc2ccccc2)c1C(N)=O  -0.121
57. CCn1c(SCC(=O)Nc2ccc(N(C)C)cc2)nnc1-c1cccc(C)c1  -0.128
58. COc1ccc(-n2nc(C(=O)c3cccs3)cc(-c3nc4ccccc4[nH]3)c2=N)cc1  -0.129
59. C=CCNC(=O)CC(=O)N/N=C/c1ccc(C(=O)OC)cc1  -0.131
60. Cc1cccc(C)c1NC(=O)C1(N(Cc2ccco2)C(=O)CC2NC(=O)NC2=O)CCCC1 (centres undefined)  -0.134
61. COc1ccc(OCC(=O)OCC(=O)NCc2ccc(F)cc2)cc1  -0.136
62. CCOC(=O)C1=C(C)N(c2ccccc2)C(=O)/C1=C\c1ccco1  -0.139
63. COc1cc(OC)c(OC)cc1CN1CCN(S(=O)(=O)c2ccc(F)cc2)CC1  -0.145
64. C=CCOc1c(Br)cc(/C=N/NC(=O)Cc2ccc(C(F)(F)F)cc2[N+](=O)[O-])cc1OC  -0.148
65. CCC(C)[C@@H](C(=O)NCC1CCC(C(=O)O)CC1)n1nnc2ccccc2c1=O (some centres undefined)  -0.157
66. CC(C)NC(=O)COC(=O)/C=C/c1ccc(F)cc1  -0.158
67. O=S(=O)(c1cc(-c2nnc(-c3ccc(Br)cc3)o2)ccc1Br)N1CCCCCC1  -0.167
68. CCOc1ccccc1NC(=O)CCN1CCN(S(=O)(=O)c2ccc(Br)cc2)CC1  -0.171
69. O=C(CSc1nnc(Cc2ccccc2)o1)NCCN1C(=O)CSC1=O  -0.181
70. Cc1cccc2cc(CN(CCN(C)C)C(=S)NCc3ccco3)c(=O)[nH]c12  -0.185
71. CCOC(=O)c1c(C)c(C(=O)NCc2cccs2)c(C)n1C  -0.189
72. Cc1c(NC(=O)c2c(F)c(F)c(F)c(F)c2F)c(=O)n(-c2ccccc2)n1C  -0.189
73. CC(C)(C)C(=O)OCCNc1nc(-c2ccccc2)nc2ccccc12  -0.19
74. COc1ccc(S(=O)(=O)c2ccc(OC)c(OC)c2)cc1OC  -0.225
75. Cc1onc(C(=O)N2CCN(c3ccccc3F)CC2)c1-c1ccccc1Cl  -0.226
76. COc1ccccc1NC(=S)NNC(=O)c1nn(C)c(C)c1Cl  -0.229
77. Cc1cccc(N(C(=O)c2nsc(Cl)c2Cl)C(C(=O)NC2CCCC2)c2ccc(O)cc2)c1 (centres undefined)  -0.237
78. Cc1ccc(C2=[N+]([O-])C(C)(C)N(O)C2(C)C)cc1  -0.258
79. CN(C(=O)CCCN1C(=O)c2cccc3cccc(c23)C1=O)c1ccccc1  -0.275
80. Cc1nnc(SC(C)C(=O)Nc2ccc3c(c2)OCCO3)s1 (centres undefined)  -0.277
81. CCOc1ccc2nc(NCCCNS(=O)(=O)c3ccc(F)cc3)c(C#N)cc2c1  -0.286
82. Cc1cc2oc(=O)cc(CSc3nnc(C)n3N)c2cc1C(C)C  -0.349
83. Cc1cc(NCCCCO)n2c(nc3ccccc32)c1C#N  -0.387
84. CCOC(=O)Nc1ccc2c(c1)OCO2  -0.392
85. Cc1ccc(C(=O)N/N=C2\SCC(=O)N2c2cc(C)ccc2C)cc1  -0.396
86. Cc1ccc(N=C2NC(=O)S/C2=C\c2ccco2)cc1  -0.4
87. CC1CCc2cc(F)ccc2N1C(=O)CSc1nnc2c(n1)[nH]c1ccc(F)cc12 (centres undefined)  -0.403
88. Cc1cc(C(=O)COC(=O)C2=NNC(=O)CC2)c(C)n1-c1ccccc1  -0.44
89. COCC(C)NC(=O)c1ccccc1OC(C)=O (centres undefined)  -0.44
90. COc1ccc(S(=O)(=O)N2c3cc(C)ccc3OCC2C(C)(C)C)cc1 (centres undefined)  -0.442
91. Cc1ccc(NC(=O)C2CC(=O)N/C(=N/NC(=O)c3ccc(C)cc3)S2)cc1 (centres undefined)  -0.457
92. O=C(Oc1c(-c2ccccc2Cl)oc2ccccc2c1=O)c1ccc(Cl)cc1  -0.473
93. Cc1cc(C)c(C#N)c(Nc2ccc3c(c2)OCCO3)n1  -0.503
94. Cc1noc(C)c1COC(=O)c1ccc2c(c1)S(=O)(=O)c1ccccc1C2=O  -0.518
95. CCN(c1ccc(C)c(C)c1)S(=O)(=O)c1c(C)[nH]c(=O)[nH]c1=O  -0.525
96. CCc1cccc2c(=O)c(C(=O)N3CCCCCC3)c[nH]c12  -0.527
97. CCCc1cc(=O)n2[nH]c(-c3cc(OC)c(OC)c(OC)c3)nc2n1  -0.544
98. CCCOC(=O)c1cccc(NC(=O)c2cccnc2)c1  -0.642
99. Cc1oc(-c2cccc(Cl)c2)nc1CSCC(=O)O  -0.753
100. CCOC(=O)c1cccc(NC(=O)CCc2nc(-c3ccc(C)cc3)no2)c1  -0.79
101. O=C(COC(=O)c1cccc(NS(=O)(=O)c2ccc(F)c(F)c2)c1)NC(=O)NC1CCCCC1  -0.828
102. CCN(CC)C(=O)C1CCCN(c2ccc([N+](=O)[O-])cc2/C=N/NC(=O)c2cccc([N+](=O)[O-])c2)C1 (centres undefined)  -0.835
103. COc1ccc(-c2nnn(CC(=O)OC3CCCCC3)n2)cc1OC  -0.907
104. CCNc1nc(CC)nc2c1oc1ccccc12  -0.918
105. CC(=O)n1cc(Nc2ccccc2C(=O)O)c2ccccc21  -1.18
106. C=CCn1c(N)cc(=O)nc1SCC(=O)Nc1ccc2ccccc2c1  -1.38
107. N#Cc1nc(Cc2ccccc2)oc1NCCc1ccccc1  -1.85

For `Cc1ccc(C(=O)Nc2nc(-c3ccccc3)c(-c3ccccc3)o2)cc1`, the z-score was active: 3.53.
`CC(C)CC(=O)NC(=S)N(Cc1ccccc1)Cc1ccccc1` was tested, and the z-score was active: 8.66.
